This is an account of results in PMC4336329 (PLoS ONE, 2015).

The whole screen tested about 310,000 compounds, of which about 14,000 (4.5%) showed an effect of 50% or more. The effect is printed as a negative number. The list shows a part of the results.
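Note: peak tail current of the secondary pulse compared with the same well before compound.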

The target in the experiment is human ether-à-go-go-related gene (hERG) potassium channel (human, UniProt Q12809). Kind of experiment: primary screen, population patch clamp on CHO cells stably expressing hERG.
human ether-à-go-go-related gene (hERG) potassium channel, sequence (Q12809 whole entry, looked up): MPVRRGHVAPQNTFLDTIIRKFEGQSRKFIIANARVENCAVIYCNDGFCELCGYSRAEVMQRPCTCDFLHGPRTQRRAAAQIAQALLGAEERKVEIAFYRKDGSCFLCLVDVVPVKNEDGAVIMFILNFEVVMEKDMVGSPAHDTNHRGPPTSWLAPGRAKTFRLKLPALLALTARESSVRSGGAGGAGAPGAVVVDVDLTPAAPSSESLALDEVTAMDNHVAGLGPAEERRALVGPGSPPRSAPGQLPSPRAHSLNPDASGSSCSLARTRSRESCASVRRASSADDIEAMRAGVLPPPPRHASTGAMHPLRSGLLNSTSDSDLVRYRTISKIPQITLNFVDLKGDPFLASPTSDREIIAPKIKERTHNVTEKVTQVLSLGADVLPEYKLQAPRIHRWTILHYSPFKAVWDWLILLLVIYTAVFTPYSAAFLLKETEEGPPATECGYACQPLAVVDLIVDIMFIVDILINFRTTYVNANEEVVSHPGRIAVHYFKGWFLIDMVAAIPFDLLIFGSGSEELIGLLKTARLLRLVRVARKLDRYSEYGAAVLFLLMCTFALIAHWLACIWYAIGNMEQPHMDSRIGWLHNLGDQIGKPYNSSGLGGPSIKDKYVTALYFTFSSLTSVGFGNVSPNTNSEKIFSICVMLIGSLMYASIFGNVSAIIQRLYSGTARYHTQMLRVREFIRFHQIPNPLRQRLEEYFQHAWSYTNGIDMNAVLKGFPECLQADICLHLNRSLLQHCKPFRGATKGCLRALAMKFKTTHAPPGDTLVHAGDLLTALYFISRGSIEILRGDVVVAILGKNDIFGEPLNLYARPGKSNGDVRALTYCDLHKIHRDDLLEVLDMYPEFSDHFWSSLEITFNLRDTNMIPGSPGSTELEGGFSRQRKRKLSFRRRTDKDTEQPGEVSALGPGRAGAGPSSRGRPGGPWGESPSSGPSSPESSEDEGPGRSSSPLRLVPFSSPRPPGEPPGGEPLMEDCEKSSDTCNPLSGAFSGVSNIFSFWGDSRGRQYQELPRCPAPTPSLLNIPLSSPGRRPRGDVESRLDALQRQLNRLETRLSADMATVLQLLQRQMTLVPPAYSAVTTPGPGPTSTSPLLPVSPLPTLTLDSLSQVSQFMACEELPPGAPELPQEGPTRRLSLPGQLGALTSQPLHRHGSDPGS
As for `Cn1c(=O)n(CC(N)=O)c(=O)c2c1nc(Br)n2Cc1ccccc1`, the “hERG current change (%, negative = inhibition) at 10uM” value is recorded as 22.3%.
The result for `Fc1ccccc1CN(CCN1CCOCC1)C(=S)Nc1ccccc1Cl` reads -6.77%; that for `O=C(c1ccc(Cl)s1)N1CCCC(N2CCN(c3ccc(F)cc3)CC2)C1` (stereo not shown), -70.1%; that for `O=C(N/N=C/c1c(O)n(C2CCCCC2)c(=S)[nH]c1=O)c1ccccc1`, 6.44%.
For `COc1ccc(C(=O)NNC(=O)CCCCC(=O)NNC(=O)c2ccc(OC)cc2)cc1` the value was -0.256%; for `Cc1ccc(C(=O)C2CCN(CC(=O)NC3CCCC3)CC2)cc1`, -19%; for `Cc1ccnc(NC(=O)COC(=O)c2ccc(F)cc2F)n1`, 6.04%.
For `Cl.Oc1cccc(C(O)CNCc2ccc(-c3ccccc3)cc2)c1` (stereo not shown) the value was -66%.
Turning to `O=C1c2ccccc2C2(c3ccc(F)cc3)NCCN12` (stereo not shown), the “hERG current change (%, negative = inhibition) at 10uM” value came out at 10.8%.
The result for `CN(c1ccc(C(=O)NCc2cccnc2)cc1)S(C)(=O)=O` reads -5.37%.
Regarding `COc1ccc2[nH]c3c(c2c1)CCN1C(=O)N([C@@H](C)C(=O)NCCc2ccc(OC)c(OC)c2)C(=O)[C@]31C`, the “hERG current change (%, negative = inhibition) at 10uM” value is -6.62%.
In the case of `COc1ccc(CNC(=O)C2CCCN2S(=O)(=O)c2ccc(C)cc2)cc1` (stereo not shown), the “hERG current change (%, negative = inhibition) at 10uM” value is recorded as -13.1%.
As for `O=C(COC(=O)c1ccc2ccccc2c1O)NCc1ccccc1`, the “hERG current change (%, negative = inhibition) at 10uM” value was found to be 12.9%.
Turning to `Cc1ccc2nc(NC(=O)CCCC(=O)O)sc2c1`, the “hERG current change (%, negative = inhibition) at 10uM” value was found to be 31.8%.
The result for `Cc1cccnc1NC(=O)CSc1ncnc2sc(C)c(C)c12` reads -17.5%; that for `Cc1ccc(NCc2nnc(SCC(=O)Nc3cccc(O)c3)n2CC2CCCO2)c(C)c1` (stereo not shown), -68.2%.
The result for `Cc1ccc(OCC(=O)NNC(=O)CSc2nnc(-c3ccc(C)cc3)n2C)cc1` reads 16.6%; that for `COc1cc(/C=C/C(=O)OCC(=O)NCCN2C(=O)CSC2=O)ccc1OC(F)F`, -30.5%; that for `Cc1ccc(S(=O)(=O)n2nc(-n3c(C)ccc3C)c3c(F)cccc32)c2ccccc12`, 12.3%.
The result for `COc1ccc(NC(=O)c2cncc(Br)c2)cc1S(N)(=O)=O` reads 0.881%.
Regarding `O=C(NCCCN1CCOCC1)c1ccccc1NS(=O)(=O)c1ccc(Br)cc1`, the “hERG current change (%, negative = inhibition) at 10uM” value was -56.1%.
On to `COc1ccc(OC)c(S(=O)(=O)NC2CC(=O)N(c3ccc(C)c(C)c3)C2)c1` (stereo not shown), for which the “hERG current change (%, negative = inhibition) at 10uM” value was -13.1%.
For `CCCCn1c(C)nc2c(=O)n(C)c(=O)[nH]c21` the value was 15.5%.
With `CCCCn1c(N)c(N(CC(C)C)C(=O)C2CCC2)c(=O)[nH]c1=O`, the “hERG current change (%, negative = inhibition) at 10uM” value is listed as -0.941%.
For `CN1CCN(Cc2nc3c(c(=O)n(C)c(=O)n3C)n2CCCc2ccccc2)CC1` the value was -13.4%.
For `Cc1nn(-c2ccccc2)c(C)c1NC(=O)COC(=O)c1ccc(Cl)c(N)c1`, the “hERG current change (%, negative = inhibition) at 10uM” value is reported as -35.1%.
For `Cc1ccc(NC(=O)CN(c2ccc(C)cc2)S(=O)(=O)c2cccc3nonc23)cc1` the value was -5.79%; for `COc1cc2c(cc1O)CCN(C(=O)c1ccco1)C2C` (stereo not shown), -7.83%.
For `O=C1C2C(c3ccccc3)(C(=O)N1c1ccc(Cl)cc1)C2(c1ccccc1)c1ccccc1` (stereo not shown), the “hERG current change (%, negative = inhibition) at 10uM” value is listed as -0.401%.
In the case of `Cc1ccccc1NS(=O)(=O)c1cc(C(=O)NCc2ccncc2)ccc1Cl`, the “hERG current change (%, negative = inhibition) at 10uM” value was -26.1%.
With `CCc1cccc(NC(=O)Cn2c(=O)c3cccn3c3ccccc32)c1`, the “hERG current change (%, negative = inhibition) at 10uM” value is recorded as 13.3%.
The result for `Cc1ccc(CN2CCN(Cc3cnn(-c4ccc(Cl)cc4)c3)CC2CCO)o1` (stereo not shown) reads -69.8%.
For `CCOC(=O)NC(=O)C(=CNc1cccc(C)c1)C(=O)NC(=O)OCC` the value was 7.13%.
The result for `O=C(O)c1ccccc1NC(=O)C1C2C=CC(C2)C1C(=O)O` (stereo not shown) reads 3.5%; that for `CCCCn1c(=N)n(CC(O)c2ccccc2)c2ccccc21.Cl` (stereo not shown), -64.9%; that for `Cc1cccc(C(=O)O/N=C(\N)Cc2cccc3ccccc23)c1`, -3.19%.
With `COc1ccccc1N1CCN(S(C)(=O)=O)CC1`, the “hERG current change (%, negative = inhibition) at 10uM” value stood at 2.03%.
On to `COc1ccc(NC(=O)CCc2nnc3ccc(N4CCN(c5cccc(OC)c5)CC4)nn23)cc1`, for which the “hERG current change (%, negative = inhibition) at 10uM” value is on record as -22.8%.
For `COc1ccc(C2=NCC(CSc3nnnn3C)S2)cc1` (stereo not shown) the value was -2.23%; for `O=C(c1ccc2c(c1)OCO2)C1CCCN(Cc2ccc(OC(F)F)cc2)C1` (stereo not shown), -85.7%; for `Cc1ccccc1CNC(=O)C(=O)NCC1CCCN1S(=O)(=O)c1ccccc1` (stereo not shown), -32.2%.
The result for `Cc1cc(C(F)(F)F)n2[nH]c(=O)c(N=Nc3ccccc3)c2n1` reads 18.6%; that for `C[C@@H]1CC[C@]2(C(=O)O)CC[C@]3(C)C(=CCC4[C@]56CC[C@@](O)(OC5)C(C)(C)C6CC[C@]43C)C2[C@H]1C` (stereo partly shown), -0.834%.
